In experiment [1] the target is T1, mCherry-MST1ΔSARAH (UniProt Q13043).
T1 sequence: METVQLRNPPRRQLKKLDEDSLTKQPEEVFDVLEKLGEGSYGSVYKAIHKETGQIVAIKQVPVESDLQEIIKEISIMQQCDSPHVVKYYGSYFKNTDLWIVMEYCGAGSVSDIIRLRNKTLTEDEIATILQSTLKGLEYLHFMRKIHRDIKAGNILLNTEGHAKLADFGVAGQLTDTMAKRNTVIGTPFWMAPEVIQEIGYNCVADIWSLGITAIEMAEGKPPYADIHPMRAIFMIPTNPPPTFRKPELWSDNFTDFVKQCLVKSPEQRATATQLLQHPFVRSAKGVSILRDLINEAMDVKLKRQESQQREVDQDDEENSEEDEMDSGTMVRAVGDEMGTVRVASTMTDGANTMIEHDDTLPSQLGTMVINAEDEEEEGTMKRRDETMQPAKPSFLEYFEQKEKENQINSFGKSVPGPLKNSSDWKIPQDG
In words: FRET or BRET; FLIM-FRET in fixed COS7 cells co-transfected with EGFP-labelled donor and mCherry-labelled acceptor; 96-well plate, wide-field time-gated FLIM, 10 fields of view per well, EGFP lifetime from a monoexponential fit; shift of at least 32 ps taken as significant.

Sequences of proteins named here, by UniProt entry; tags and fusion partners are left off.
UniProt O75901: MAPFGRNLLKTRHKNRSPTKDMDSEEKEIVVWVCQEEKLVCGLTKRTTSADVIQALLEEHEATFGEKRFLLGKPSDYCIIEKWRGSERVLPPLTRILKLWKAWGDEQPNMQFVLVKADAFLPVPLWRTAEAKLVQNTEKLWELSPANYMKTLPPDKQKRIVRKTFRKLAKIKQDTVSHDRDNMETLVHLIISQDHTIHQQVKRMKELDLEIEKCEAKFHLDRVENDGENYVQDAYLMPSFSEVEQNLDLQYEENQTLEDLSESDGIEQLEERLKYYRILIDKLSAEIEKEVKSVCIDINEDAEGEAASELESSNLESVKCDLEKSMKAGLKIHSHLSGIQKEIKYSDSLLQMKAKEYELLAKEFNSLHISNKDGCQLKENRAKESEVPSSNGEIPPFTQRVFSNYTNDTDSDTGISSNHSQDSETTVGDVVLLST

Experiment [2] concerns the target T1, mCherry-MST1ΔSARAH. Described as above. This is another data set of the same source.
Experiment [3] addresses T2, mCherry-SARAH_(MST1) (UniProt Q13043).
T2 sequence: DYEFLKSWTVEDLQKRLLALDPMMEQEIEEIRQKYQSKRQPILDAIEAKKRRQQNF
Described as above.

For experiment [4], the target named is T3, mCherry-MST1 (UniProt Q13043).
T3 sequence: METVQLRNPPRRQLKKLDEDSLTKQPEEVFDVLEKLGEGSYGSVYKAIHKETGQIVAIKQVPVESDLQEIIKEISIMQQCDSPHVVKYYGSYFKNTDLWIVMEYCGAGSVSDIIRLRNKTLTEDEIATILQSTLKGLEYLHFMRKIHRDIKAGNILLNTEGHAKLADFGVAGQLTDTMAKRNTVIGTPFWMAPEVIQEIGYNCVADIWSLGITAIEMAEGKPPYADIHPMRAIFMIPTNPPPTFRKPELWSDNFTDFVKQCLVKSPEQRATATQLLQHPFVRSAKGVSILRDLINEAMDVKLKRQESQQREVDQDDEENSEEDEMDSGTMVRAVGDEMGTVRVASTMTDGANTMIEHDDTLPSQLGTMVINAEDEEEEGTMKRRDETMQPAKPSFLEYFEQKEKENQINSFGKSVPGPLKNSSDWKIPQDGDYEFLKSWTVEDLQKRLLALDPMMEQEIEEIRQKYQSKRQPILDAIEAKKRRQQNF
The experiment is described as follows: FRET or BRET; FLIM-FRET in fixed COS7 cells co-transfected with EGFP-labelled donor and mCherry-labelled acceptor; optically sectioned FLIM with a spinning Nipkow disc, 40x objective; monoexponential fit and global double exponential fit (FRET fraction, KD per cell from calibrated intensities). For orientation: In BRET a luciferase serves as donor, and the signal depends on an acceptor being close.

The target of experiment [5] is T2, mCherry-SARAH_(MST1). Described as above.
The target of experiment [6] is T4, myc-MST1 K59R (UniProt Q13043).
T4 sequence: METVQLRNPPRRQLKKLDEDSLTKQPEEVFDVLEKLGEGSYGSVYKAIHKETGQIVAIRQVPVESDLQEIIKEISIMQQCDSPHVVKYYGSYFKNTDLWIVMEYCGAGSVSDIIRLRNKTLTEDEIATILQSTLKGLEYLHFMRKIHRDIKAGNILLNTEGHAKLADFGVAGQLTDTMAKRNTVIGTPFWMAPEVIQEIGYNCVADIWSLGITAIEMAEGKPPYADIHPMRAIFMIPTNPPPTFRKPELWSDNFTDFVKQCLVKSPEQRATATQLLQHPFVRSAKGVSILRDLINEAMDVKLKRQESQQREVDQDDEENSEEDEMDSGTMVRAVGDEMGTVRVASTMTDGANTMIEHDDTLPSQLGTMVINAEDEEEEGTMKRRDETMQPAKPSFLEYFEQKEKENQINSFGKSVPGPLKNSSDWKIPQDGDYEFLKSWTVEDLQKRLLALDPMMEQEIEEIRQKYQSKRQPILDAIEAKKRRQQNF
In words: co-IP; Anti-c-Myc Immunoprecipitation kit (Sigma) on co-transfected cell lysates; blot with anti-GFP; repeated three times.

In publication PMC4919659 (2016) one finds binding data, which are given here for 9 molecules.

Read-outs that look alike come from different tables or passages of the source. No constants are given. Whether binding was seen depends on the method and setting. Binding seen in cells or lysates may run through a third protein. Some results given as binding are weak or reduced against the parent protein; the word gives no strength. For some of these results: Where a sequence is shown, tags or fusion partners need not be part of it.

As to EGFP-RASSF9 (from UniProt O75901 1-435), the binding entry in experiment [1] was “no binding”.

B1: EGFP-RASSF8 (protein, UniProt Q8NHQ8 1-419)
chain: MELKVWVDGVQRIVCGVTEVTTCQEVVIALAQAIGRTGRYTLIEKWRDTERHLAPHENPIISLNKWGQYASDVQLILRRTGPSLSERPTSDSVARIPERTLYRQSLPPLAKLRPQIDKSIKRREPKRKSLTFTGGAKGLMDIFGKGKETEFKQKVLNNCKTTADELKKLIRLQTEKLQSIEKQLESNEIEIRFWEQKYNSNLEEEIVRLEQKIKRNDVEIEEEEFWENELQIEQENEKQLKDQLQEIRQKITECENKLKDYLAQIRTMESGLEAEKLQREVQEAQVNEEEVKGKIGKVKGEIDIQGQQSLRLENGIKAVERSLGQATKRLQDKEQELEQLTKELRQVNLQQFIQQTGTKVTVLPAEPIEIEASHADIEREAPFQSGSLKRPGSSRQLPSNLRILQNPISSGFNPEGIYV
For B1, the binding result in experiment [2] was “no binding”.

B2: EGFP-RASSF6 (protein, UniProt Q6ZTQ3 1-369)
chain: MLWEETGAAPAPARASDLPYRISSDHLKKEEKMTMMAHQYPSWIFINEKTFITREQLNSLLKTYNIFYENQKNLHILYGETEDGKLIVEGMLDIFWGVKRPIQLKIQDEKPFSSFTSMKSSDVFSSKGMTRWGEFDDLYRISELDRTQIPMSEKRNSQEDYLSYHSNTLKPHAKDEPDSPVLYRTMSEAALVRKRMKPLMMDRKERQKNRASINGHFYNHETSIFIPAFESETKVRVNSNMRTEEVIKQLLQKFKIENSPQDFALHIIFATGEQRRLKKTDIPLLQRLLQGPSEKNARIFLMDKDAEEISSDVAQYINFHFSLLESILQRLNEEEKREIQRIVTKFNKEKAIILKCLQNKLVIKTETTV
As for B2, the binding result in experiment [2] is “no binding”; in experiment [3] it was “binds”; in experiment [4] it was “binds”; in experiment [5], “binds”.

B3: EGFP-RASSF10 (protein, UniProt A6NK89 1-507)
chain: MDPSEKKISVWICQEEKLVSGLSRRTTCSDVVRVLLEDGCRRRRRQRRSRRLGSAGDPHGPGELPEPPNEDDEDDDEALPQGMLCGPPQCYCIVEKWRGFERILPNKTRILRLWAAWGEEQENVRFVLVRSEASLPNAGPRSAEARVVLSRERPCPARGAPARPSLAMTQEKQRRVVRKAFRKLAKLNRRRQQQTPSSCSSTSSSTASSCSSSPRTHESASVERMETLVHLVLSQDHTIRQQVQRLHELDREIDHYEAKVHLDRMRRHGVNYVQDTYLVGAGIELDGSRPGEEPEEVAAEAEEAAAAPPLAGEAQAAALEELARRCDDLLRLQEQRVQQEELLERLSAEIQEELNQRWMRRRQEELAAREEPLEPDGGPDGELLLEQERVRTQLSTSLYIGLRLNTDLEAVKSDLDYSQQQWDSKKRELQGLLQTLHTLELTVAPDGAPGSGSPSREPGPQACADMWVDQARGLAKSGPGNDEDSDTGLSSMHSQDSDSLPMCESLV
As for B3, in experiment [2], the binding result is recorded as “no binding”.

B4: EGFP-RASSF4 (protein, UniProt Q9H2L5 1-321)
chain: MKEDCLPSSHVPISDSKSIQKSELLGLLKTYNCYHEGKSFQLRHREEEGTLIIEGLLNIAWGLRRPIRLQMQDDREQVHLPSTSWMPRRPSCPLKEPSPQNGNITAQGPSIQPVHKAESSTDSSGPLEEAEEAPQLMRTKSDASCMSQRRPKCRAPGEAQRIRRHRFSINGHFYNHKTSVFTPAYGSVTNVRVNSTMTTLQVLTLLLNKFRVEDGPSEFALYIVHESGERTKLKDCEYPLISRILHGPCEKIARIFLMEADLGVEVPHEVAQYIKFEMPVLDSFVEKLKEEEEREIIKLTMKFQALRLTMLQRLEQLVEAK
As for B4, the binding entry in experiment [2] is “no binding”; in experiment [3], “binds”; in experiment [4], “binds”; in experiment [5], “binds”.

B5: EGFP-RASSF5C (wild type) (protein, UniProt Q8WWW0-2 1-265)
chain: MTVDSSMSSGYCSLDEELEDCFFTAKTTFFRNAQSKHLSKNVCKPVEETQRPPTLQEIKQKIDSYNTREKNCLGMKLSEDGTYTGFIKVHLKLRRPVTVPAGIRPQSIYDAIKEVNLAATTDKRTSFYLPLDAIKQLHISSTTTVSEVIQGLLKKFMVVDNPQKFALFKRIHKDGQVLFQKLSIADRPLYLRLLAGPDTEVLSFVLKENETGEVEWDAFSIPELQNFLTILEKEEQDKIQQVQKKYDKFRQKLEEALRESQGKPG
With B5, the binding entry in experiment [6] was “binds”; in experiment [2], “no binding”; in experiment [3] it was “binds”; in experiment [4], “binds”; in experiment [5], “binds”.

B6: EGFP-RASSF7 (protein, UniProt Q02833 1-373)
chain: MLLGLAAMELKVWVDGIQRVVCGVSEQTTCQEVVIALAQAIGQTGRFVLVQRLREKERQLLPQECPVGAQATCGQFASDVQFVLRRTGPSLAGRPSSDSCPPPERCLIRASLPVKPRAALGCEPRKTLTPEPAPSLSRPGPAAPVTPTPGCCTDLRGLELRVQRNAEELGHEAFWEQELRREQAREREGQARLQALSAATAEHAARLQALDAQARALEAELQLAAEAPGPPSPMASATERLHQDLAVQERQSAEVQGSLALVSRALEAAERALQAQAQELEELNRELRQCNLQQFIQQTGAALPPPPRPDRGPPGTQGPLPPAREESLLGAPSESHAGAQPRPRGGPHDAELLEVAAAPAPEWCPLAAQPQAL
Regarding B6, the binding result in experiment [2] is reported as “no binding”.

B7: EGFP-RASSF3 (protein, UniProt Q86WH2 1-238)
chain: MSSGYSSLEEDAEDFFFTARTSFFRRAPQGKPRSGQQDVEKEKETHSYLSKEEIKEKVHKYNLAVTDKLKMTLNSNGIYTGFIKVQMELCKPPQTSPNSGKLSPSSNGCMNTLHISSTNTVGEVIEALLKKFLVTESPAKFALYKRCHREDQVYACKLSDREHPLYLRLVAGPRTDTLSFVLREHEIGEWEAFSLPELQNFLRILDKEEDEQLQNLKRRYTAYRQKLEEALREVWKPD
For the molecule B7, the binding entry is “no binding” in experiment [2], “binds” in experiment [3], “binds” in experiment [4] and “binds” in experiment [5].

B8: EGFP-RASSF2 (protein, UniProt P50749 1-326)
chain: MDYSHQTSLVPCGQDKYISKNELLLHLKTYNLYYEGQNLQLRHREEEDEFIVEGLLNISWGLRRPIRLQMQDDNERIRPPPSSSSWHSGCNLGAQGTTLKPLTVPKVQISEVDAPPEGDQMPSSTDSRGLKPLQEDTPQLMRTRSDVGVRRRGNVRTPSDQRRIRRHRFSINGHFYNHKTSVFTPAYGSVTNVRINSTMTTPQVLKLLLNKFKIENSAEEFALYVVHTSGEKQKLKATDYPLIARILQGPCEQISKVFLMEKDQVEEVTYDVAQYIKFEMPVLKSFIQKLQEEEDREVKKLMRKYTVLRLMIRQRLEEIAETPATI
Regarding B8, the binding result in experiment [2] was “no binding”; in experiment [3] it was “binds”; in experiment [4], “binds”; in experiment [5], “binds”.
